Legend:
Ephrin-A4 (EFNA4) = molecular target: T1, Ephrin-A4 (EFNA4) (Homo sapiens, UniProt P52798); assay: Direct ELISA binding specificity, Ephrin-A4; conditions: biotin-labeled antibody
T1 construct: purchased R&D
T1 sequence (P52798 26-170): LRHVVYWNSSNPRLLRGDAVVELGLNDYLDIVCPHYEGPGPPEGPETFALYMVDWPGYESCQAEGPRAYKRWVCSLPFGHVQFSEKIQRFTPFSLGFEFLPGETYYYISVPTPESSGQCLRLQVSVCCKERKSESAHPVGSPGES
Protocol: Further properties were determined using ELISA to analyze the binding specificity of anti-EFNA4 antibodies huE22 and huE47 to Ephrin-A4 (EFNA4) along with homologous family members Ephrin-A1 (EFNA1) and Ephrin-A3 (EFNA3). Antibody binding was determined by direct ELISA with Ephrin-A1-His, Ephrin-A3-huFc, Ephrin-A4-huFc and Ephrin-A5-huFc (all from R&D) coated on BioOne Microlon (Greiner) plates in PBS overnight at 4° C. Biotin-labeled huE22 and huE47 were incubated on the plate for 2.5 hours at room temperature and Streptavidin HRP was used to develop signal from biotin labeled antibody in the absence of interfering human IgG signal.

[1] = system: LU86 small-cell lung cancer (SCLC) PDX; assay: In vivo efficacy, LU86 SCLC PDX
[2] = system: Ovarian-55 (OV55) ovarian cancer PDX; assay: In vivo efficacy, OV55 ovarian cancer PDX; parameters: species or system NOD/SCID mice (human tumor PDX)
[3] = system: Breast-5 (BR5) triple-negative breast cancer (TNBC) PDX; assay: In vivo efficacy, BR5 TNBC PDX; parameters: species or system NOD/SCID mice (human tumor PDX); conditions: for Regression (TTP, Days): BR5 PDX

B1: huE22 (antibody)
heavy: QVQLVQSGAEVKKPGASVKVSCKASGYTFTGYYIHWVRQAPGQGLEWMGWIYPGNFNTKYNERFKGRVTMTTDTSTSTAYMELRSLRSDDTAVYYCAREDGSPYYAMDYWGQGTSVTVSS[human IgG1 constant region omitted here]
VL: DIVMTQTPLSLSVTPGQPASISCRSSQSLVHSNGNTFLYWYLQKPGQSPQLLIYRVSNRFSGVPDRFSGSGSGTDFTLKISRVEAEDVGVYYCFQATHVPWTFGGGTKVEIK
binding to Ephrin-A4 (EFNA4) (Ephrin-A4 (EFNA4)): binds to EFNA4

B2: huE22-AcBut-CM: huE22 conjugated via lysine residues to AcBut-N-acetyl-γ-calicheamicin dimethyl hydrazide (AcBut-CM) (conjugate)
heavy: B1 heavy
light: DIVMTQTPLSLSVTPGQPASISCRSSQSLVHSNGNTFLYWYLQKPGQSPQLLIYRVSNRFSGVPDRFSGSGSGTDFTLKISRVEAEDVGVYYCFQATHVPWTFGGGTKVEIKRTVAAPSVFIFPPSDEQLKSGTASVVCLLNNFYPREAKVQWKVDNALQSGNSQESVTEQDSKDSTYSLSSTLTLSKADYEKHKVYACEVTHQGLSSPVTKSFNRGEC
mean tumor volume ([1]; 0.09 mg/kg, Day 0): 143 ± 10 | mean tumor volume ([1]; 0.09 mg/kg, Day 7): 215 ± 19 | mean tumor volume ([1]; 0.09 mg/kg, Day 14): 66 ± 9 | mean tumor volume ([1]; 0.09 mg/kg, Day 21): 0 ± 0 | mean tumor volume ([1]; 0.09 mg/kg, Day 28): 0 ± 0 | mean tumor volume ([1]; 0.09 mg/kg, Day 35): 0 ± 0 | mean tumor volume ([1]; 0.09 mg/kg, Day 42): 0 ± 0 | mean tumor volume ([1]; 0.09 mg/kg, Day 49): 0 ± 0 | mean tumor volume ([1]; 0.09 mg/kg, Day 56): 0 ± 0 | mean tumor volume ([1]; 0.09 mg/kg, Day 63): 28 ± 22 | mean tumor volume ([1]; 0.09 mg/kg, Day 70): 52 ± 34 | mean tumor volume ([1]; 0.09 mg/kg, Day 77): 93 ± 60 | mean tumor volume ([1]; 0.09 mg/kg, Day 84): 117 ± 75 | mean tumor volume ([1]; 0.09 mg/kg, Day 92): 237 ± 124 | mean tumor volume ([1]; 0.09 mg/kg, Day 98): 304 ± 154 | mean tumor volume ([1]; 0.09 mg/kg, Day 105): 385 ± 179 | mean tumor volume ([1]; 0.09 mg/kg, Day 112): 420 ± 171 | mean tumor volume ([1]; 0.09 mg/kg, Day 119): 491 ± 163 | mean tumor volume ([1]; 0.09 mg/kg, Day 126): 602 ± 165 | mean tumor volume ([1]; 0.09 mg/kg, Day 133): 828 ± 213 | mean tumor volume ([1]; 0.27 mg/kg, Day 0): 138 ± 9 | mean tumor volume ([1]; 0.27 mg/kg, Day 7): 105 ± 12 | mean tumor volume ([1]; 0.27 mg/kg, Day 14): 0 ± 0 | mean tumor volume ([1]; 0.27 mg/kg, Day 21): 0 ± 0 | mean tumor volume ([1]; 0.27 mg/kg, Day 28): 0 ± 0 | mean tumor volume ([1]; 0.27 mg/kg, Day 35): 0 ± 0 | mean tumor volume ([1]; 0.27 mg/kg, Day 42): 0 ± 0 | mean tumor volume ([1]; 0.27 mg/kg, Day 49): 0 ± 0 | mean tumor volume ([1]; 0.27 mg/kg, Day 56): 0 ± 0 | mean tumor volume ([1]; 0.27 mg/kg, Day 63): 0 ± 0 | mean tumor volume ([1]; 0.27 mg/kg, Day 70): 0 ± 0 | mean tumor volume ([1]; 0.27 mg/kg, Day 77): 0 ± 0 | mean tumor volume ([1]; 0.27 mg/kg, Day 84): 0 ± 0 | mean tumor volume ([1]; 0.27 mg/kg, Day 92): 6 ± 6 | mean tumor volume ([1]; 0.27 mg/kg, Day 98): 34 ± 24 | mean tumor volume ([1]; 0.27 mg/kg, Day 105): 56 ± 32 | mean tumor volume ([1]; 0.27 mg/kg, Day 112): 99 ± 56 | mean tumor volume ([1]; 0.27 mg/kg, Day 119): 171 ± 109 | mean tumor volume ([1]; 0.27 mg/kg, Day 126): 239 ± 139 | mean tumor volume ([1]; 0.27 mg/kg, Day 133): 370 ± 201 | mean tumor volume ([1]; 0.27 mg/kg, Day 140): 429 ± 210 | mean tumor volume ([1]; 0.27 mg/kg, Day 147): 469 ± 222 | mean tumor volume ([1]; 0.27 mg/kg, Day 154): 599 ± 286 | Regression (TTP, Days) or % TGI ([2]; 0.018 mg/kg, OV55 PDX): No activity | mean tumor volume ([2]; 0.09 mg/kg, Day 0): 208 ± 24 | mean tumor volume ([2]; 0.09 mg/kg, Day 6): 198 ± 33 | mean tumor volume ([2]; 0.09 mg/kg, Day 13): 109 ± 27 | mean tumor volume ([2]; 0.09 mg/kg, Day 20): 63 ± 14 | mean tumor volume ([2]; 0.09 mg/kg, Day 27): 30 ± 9 | mean tumor volume ([2]; 0.09 mg/kg, Day 34): 37 ± 13 | mean tumor volume ([2]; 0.09 mg/kg, Day 42): 94 ± 37 | mean tumor volume ([2]; 0.09 mg/kg, Day 48): 171 ± 62 | mean tumor volume ([2]; 0.09 mg/kg, Day 55): 382 ± 142 | mean tumor volume ([2]; 0.09 mg/kg, Day 62): 579 ± 209 | mean tumor volume ([2]; 0.09 mg/kg, Day 69): 980 ± 405 | Regression (TTP, Days) ([2]; 0.09 mg/kg, OV55 PDX): Regression (42) Days | mean tumor volume ([2]; 0.27 mg/kg, Day 0): 204 ± 28 | mean tumor volume ([2]; 0.27 mg/kg, Day 6): 152 ± 18 | mean tumor volume ([2]; 0.27 mg/kg, Day 13): 66 ± 13 | mean tumor volume ([2]; 0.27 mg/kg, Day 20): 35 ± 9 | mean tumor volume ([2]; 0.27 mg/kg, Day 27): 5 ± 4 | mean tumor volume ([2]; 0.27 mg/kg, Day 34): 0 ± 0 | mean tumor volume ([2]; 0.27 mg/kg, Day 42): 0 ± 0 | mean tumor volume ([2]; 0.27 mg/kg, Day 48): 0 ± 0 | mean tumor volume ([2]; 0.27 mg/kg, Day 55): 0 ± 0 | mean tumor volume ([2]; 0.27 mg/kg, Day 69): 7 ± 7 | mean tumor volume ([2]; 0.27 mg/kg, Day 76): 11 ± 11 | mean tumor volume ([2]; 0.27 mg/kg, Day 83): 24 ± 24 | mean tumor volume ([2]; 0.27 mg/kg, Day 90): 35 ± 35 | mean tumor volume ([2]; 0.27 mg/kg, Day 97): 78 ± 78 | mean tumor volume ([2]; 0.27 mg/kg, Day 105): 107 ± 107 | mean tumor volume ([2]; 0.27 mg/kg, Day 108): 99 ± 99 | mean tumor volume ([2]; 0.27 mg/kg, Day 121): 157 ± 157 | mean tumor volume ([2]; 0.27 mg/kg, Day 125): 253 ± 253 | mean tumor volume ([2]; 0.27 mg/kg, Day 132): 253 ± 253 | Regression (TTP, Days) ([2]; 0.27 mg/kg, OV55 PDX): Regression (76) Days | effect on tumor growth ([2]; 0.036 dose level): some delay in tumor growth | tumor regression ([2]; 0.27 and 0.09 mg/kg dose levels): Tumor regressions were achieved | tumor volume ± SEM ([3]; 0.09 mg/kg, Day 11): 209 ± 42 mm^3 | tumor volume ± SEM ([3]; 0.09 mg/kg, Day 18): 83 ± 25 mm^3 | tumor volume ± SEM ([3]; 0.09 mg/kg, Day 25): 30 ± 8 mm^3 | tumor volume ± SEM ([3]; 0.09 mg/kg, Day 47): 32 ± 25 mm^3 | tumor volume ± SEM ([3]; 0.09 mg/kg, Day 60): 159 ± 118 mm^3 | Regression (TTP, Days) ([3]; 0.09 mg/kg): Regression (53) Days | tumor volume ± SEM ([3]; 0.09 mg/kg, Day 0): 161 ± 21 mm^3 | tumor volume ± SEM ([3]; 0.09 mg/kg, Day 7): 441 ± 57 mm^3 | tumor volume ± SEM ([3]; 0.09 mg/kg, Day 32): 15 ± 10 mm^3 | tumor volume ± SEM ([3]; 0.09 mg/kg, Day 39): 14 ± 9 mm^3 | tumor volume ± SEM ([3]; 0.09 mg/kg, Day 53): 82 ± 66 mm^3 | tumor volume ± SEM ([3]; 0.09 mg/kg, Day 67): 318 ± 209 mm^3 | tumor volume ± SEM ([3]; 0.09 mg/kg, Day 74): 452 ± 234 mm^3 | tumor volume ± SEM ([3]; 0.09 mg/kg, Day 81): 811 ± 362 mm^3 | tumor volume ± SEM ([3]; 0.27 mg/kg, Day 11): 290 ± 42 mm^3 | tumor volume ± SEM ([3]; 0.27 mg/kg, Day 18): 69 ± 7 mm^3 | tumor volume ± SEM ([3]; 0.27 mg/kg, Day 25): 34 ± 6 mm^3 | tumor volume ± SEM ([3]; 0.27 mg/kg, Day 47): 0 ± 0 mm^3 | tumor volume ± SEM ([3]; 0.27 mg/kg, Day 60): 0 ± 0 mm^3 | tumor volume ± SEM ([3]; 0.27 mg/kg, Day 89): 0 ± 0 mm^3 | tumor volume ± SEM ([3]; 0.27 mg/kg, Day 95): 0 ± 0 mm^3 | tumor volume ± SEM ([3]; 0.27 mg/kg, Day 109): 0 ± 0 mm^3 | tumor volume ± SEM ([3]; 0.27 mg/kg, Day 130): 0 ± 0 mm^3 | tumor volume ± SEM ([3]; 0.27 mg/kg, Day 144): 0 ± 0 mm^3 | tumor volume ± SEM ([3]; 0.27 mg/kg, Day 152): 0 ± 0 mm^3 | tumor volume ± SEM ([3]; 0.27 mg/kg, Day 155): 0 ± 0 mm^3 | tumor volume ± SEM ([3]; 0.27 mg/kg, Day 172): 0 ± 0 mm^3 | Regression (TTP, Days) ([3]; 0.27 mg/kg): Regression (200) Days | tumor volume ± SEM ([3]; 0.27 mg/kg, Day 7): 428 ± 46 mm^3 | tumor volume ± SEM ([3]; 0.27 mg/kg, Day 39): 0 ± 0 mm^3 | tumor volume ± SEM ([3]; 0.27 mg/kg, Day 53): 0 ± 0 mm^3 | tumor volume ± SEM ([3]; 0.27 mg/kg, Day 67): 0 ± 0 mm^3 | tumor volume ± SEM ([3]; 0.27 mg/kg, Day 74): 0 ± 0 mm^3 | tumor volume ± SEM ([3]; 0.27 mg/kg, Day 81): 0 ± 0 mm^3 | tumor volume ± SEM ([3]; 0.27 mg/kg, Day 102): 0 ± 0 mm^3 | tumor volume ± SEM ([3]; 0.27 mg/kg, Day 116): 0 ± 0 mm^3 | tumor volume ± SEM ([3]; 0.27 mg/kg, Day 123): 0 ± 0 mm^3 | tumor volume ± SEM ([3]; 0.27 mg/kg, Day 137): 0 ± 0 mm^3 | tumor volume ± SEM ([3]; 0.27 mg/kg, Day 168): 0 ± 0 mm^3

— US9872922B2, “Anti-EFNA4 antibody-drug conjugates” (PFIZER, INC., priority 2013, dated 2018)
